Publication PMC1937012
These are yes or no findings as the source states them, for the method shown. In cells and extracts the contact can be indirect. Some results given as binding are weak or reduced against the parent protein; the word gives no strength.

By UniProt entry, the sequences of proteins in these tests, tags left out. Where a name states a change or a piece, a line headed by the entry shows the natural chain unless it says otherwise.
UniProt P11978: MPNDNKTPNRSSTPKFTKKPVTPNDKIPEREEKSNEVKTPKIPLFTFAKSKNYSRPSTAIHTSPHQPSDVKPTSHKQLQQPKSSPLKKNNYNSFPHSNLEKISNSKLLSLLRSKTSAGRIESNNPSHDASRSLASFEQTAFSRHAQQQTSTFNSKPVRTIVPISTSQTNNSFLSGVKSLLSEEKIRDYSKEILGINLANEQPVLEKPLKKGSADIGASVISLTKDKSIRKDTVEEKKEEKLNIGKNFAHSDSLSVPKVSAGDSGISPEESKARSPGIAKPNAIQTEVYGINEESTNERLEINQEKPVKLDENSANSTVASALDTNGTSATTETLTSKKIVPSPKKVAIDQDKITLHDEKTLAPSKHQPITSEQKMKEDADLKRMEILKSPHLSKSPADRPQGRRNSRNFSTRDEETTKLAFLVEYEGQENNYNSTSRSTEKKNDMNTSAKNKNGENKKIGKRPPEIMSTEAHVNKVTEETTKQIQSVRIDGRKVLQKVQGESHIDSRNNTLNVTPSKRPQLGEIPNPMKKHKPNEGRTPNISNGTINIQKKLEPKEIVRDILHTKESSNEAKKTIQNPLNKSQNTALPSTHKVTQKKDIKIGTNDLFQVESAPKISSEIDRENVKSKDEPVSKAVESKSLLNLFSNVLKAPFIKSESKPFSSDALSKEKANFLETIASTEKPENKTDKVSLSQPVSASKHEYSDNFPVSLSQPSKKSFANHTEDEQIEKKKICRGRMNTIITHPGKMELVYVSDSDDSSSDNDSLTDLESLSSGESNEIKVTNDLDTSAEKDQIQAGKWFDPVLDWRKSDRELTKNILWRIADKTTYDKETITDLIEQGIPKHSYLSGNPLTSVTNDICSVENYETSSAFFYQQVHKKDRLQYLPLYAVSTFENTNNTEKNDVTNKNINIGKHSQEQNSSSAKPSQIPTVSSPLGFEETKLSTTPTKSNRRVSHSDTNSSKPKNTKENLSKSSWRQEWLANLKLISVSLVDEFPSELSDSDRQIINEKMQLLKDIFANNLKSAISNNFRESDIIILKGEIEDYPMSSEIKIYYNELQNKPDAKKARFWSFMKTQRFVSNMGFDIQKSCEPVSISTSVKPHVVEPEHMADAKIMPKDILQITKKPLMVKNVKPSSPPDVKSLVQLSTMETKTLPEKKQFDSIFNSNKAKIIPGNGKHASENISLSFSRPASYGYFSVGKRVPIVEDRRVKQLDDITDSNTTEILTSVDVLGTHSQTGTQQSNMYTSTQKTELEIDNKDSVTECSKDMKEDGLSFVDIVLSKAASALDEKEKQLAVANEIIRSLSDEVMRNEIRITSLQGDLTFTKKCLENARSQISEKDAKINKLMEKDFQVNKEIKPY
UniProt P06700: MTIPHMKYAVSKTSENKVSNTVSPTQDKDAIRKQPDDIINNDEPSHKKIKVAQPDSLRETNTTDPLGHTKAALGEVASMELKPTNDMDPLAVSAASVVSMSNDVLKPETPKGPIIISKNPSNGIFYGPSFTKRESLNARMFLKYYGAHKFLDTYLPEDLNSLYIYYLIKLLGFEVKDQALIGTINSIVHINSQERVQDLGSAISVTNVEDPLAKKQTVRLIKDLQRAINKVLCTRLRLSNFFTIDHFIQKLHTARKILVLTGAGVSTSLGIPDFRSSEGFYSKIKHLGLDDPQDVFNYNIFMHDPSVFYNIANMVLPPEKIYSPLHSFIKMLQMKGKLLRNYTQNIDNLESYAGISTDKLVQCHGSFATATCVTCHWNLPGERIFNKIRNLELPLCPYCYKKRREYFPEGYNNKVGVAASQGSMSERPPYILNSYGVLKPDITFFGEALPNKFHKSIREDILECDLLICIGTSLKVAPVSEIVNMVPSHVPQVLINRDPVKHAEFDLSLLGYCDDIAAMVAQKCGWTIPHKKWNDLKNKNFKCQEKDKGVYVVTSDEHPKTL
UniProt P53685: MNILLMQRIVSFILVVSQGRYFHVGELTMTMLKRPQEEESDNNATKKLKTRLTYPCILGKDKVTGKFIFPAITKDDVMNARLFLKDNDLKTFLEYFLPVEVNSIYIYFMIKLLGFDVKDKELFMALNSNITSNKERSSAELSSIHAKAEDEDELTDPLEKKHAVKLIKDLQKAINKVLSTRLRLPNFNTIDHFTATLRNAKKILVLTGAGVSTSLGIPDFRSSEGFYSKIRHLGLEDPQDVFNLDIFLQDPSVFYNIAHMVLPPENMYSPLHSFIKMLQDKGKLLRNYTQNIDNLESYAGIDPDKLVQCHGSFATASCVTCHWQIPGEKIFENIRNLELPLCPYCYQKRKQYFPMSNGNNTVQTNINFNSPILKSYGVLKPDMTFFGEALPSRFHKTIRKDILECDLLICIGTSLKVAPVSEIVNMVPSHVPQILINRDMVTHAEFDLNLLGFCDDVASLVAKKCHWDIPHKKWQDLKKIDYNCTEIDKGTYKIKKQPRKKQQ

Experiments:
Sir4p (S. cerevisiae) = Sir4p (S. cerevisiae) (UniProt P11978); assay: co-IP; Sir4p immunoprecipitated with rabbit anti-Sir4p serum and protein A agarose from whole-cell lysates of hst1Δ sir2Δ (LRY333) yeast with plasmids, 4 °C; blot with anti-HA
Sum1p (S. cerevisiae) [1] = target: T1, Sum1p (S. cerevisiae) (UniProt P46676); assay: co-IP; Sum1p immunoprecipitated with guinea pig anti-Sum1p serum and protein A agarose from yeast whole-cell lysates, 4 °C; blot with anti-HA; strains HST1-HA (LRY558), hst1Δ (LRY198) or hst1Δ sir2Δ (LRY333) with plasmids
T1 sequence: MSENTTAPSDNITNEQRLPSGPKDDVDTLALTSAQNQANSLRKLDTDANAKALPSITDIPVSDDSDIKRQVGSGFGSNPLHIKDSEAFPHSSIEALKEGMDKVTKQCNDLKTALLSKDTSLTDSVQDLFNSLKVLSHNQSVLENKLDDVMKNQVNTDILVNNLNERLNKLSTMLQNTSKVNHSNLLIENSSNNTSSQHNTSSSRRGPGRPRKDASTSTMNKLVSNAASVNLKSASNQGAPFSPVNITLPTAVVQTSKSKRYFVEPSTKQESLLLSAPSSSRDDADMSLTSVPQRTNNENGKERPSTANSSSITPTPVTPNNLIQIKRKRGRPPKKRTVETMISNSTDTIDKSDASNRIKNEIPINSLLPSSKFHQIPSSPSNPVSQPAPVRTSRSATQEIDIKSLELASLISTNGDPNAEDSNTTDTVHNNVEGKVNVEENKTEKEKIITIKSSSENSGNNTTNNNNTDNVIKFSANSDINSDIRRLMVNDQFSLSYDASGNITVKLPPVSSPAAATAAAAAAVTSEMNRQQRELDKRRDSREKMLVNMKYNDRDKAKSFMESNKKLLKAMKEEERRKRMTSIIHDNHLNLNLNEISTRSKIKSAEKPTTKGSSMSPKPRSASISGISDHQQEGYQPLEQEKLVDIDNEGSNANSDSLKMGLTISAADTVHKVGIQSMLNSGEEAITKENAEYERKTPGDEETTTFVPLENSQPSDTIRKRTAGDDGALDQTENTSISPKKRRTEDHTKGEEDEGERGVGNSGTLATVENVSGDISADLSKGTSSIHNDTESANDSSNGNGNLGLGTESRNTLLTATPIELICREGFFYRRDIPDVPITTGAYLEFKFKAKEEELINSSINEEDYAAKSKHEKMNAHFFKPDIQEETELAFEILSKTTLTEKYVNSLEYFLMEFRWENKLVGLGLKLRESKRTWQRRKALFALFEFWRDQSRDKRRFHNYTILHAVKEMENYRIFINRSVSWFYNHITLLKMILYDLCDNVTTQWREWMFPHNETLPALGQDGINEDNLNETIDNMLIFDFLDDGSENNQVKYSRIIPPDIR

Sum1p (S. cerevisiae) [2] = target: T1, Sum1p (S. cerevisiae); assay: condition: only in wild-type yeast, with Hst1p present; co-IP; as a1, but HA-Sir2p (pRO298) in wild-type yeast (W3031-a) with endogenous Hst1p present
Sum1p (S. cerevisiae) [3] = target: T1, Sum1p (S. cerevisiae); assay: co-IP; as a1, but HA-Sir2p (pRO298) in the hst1-N291A strain (LRY1306) with inactive Hst1-N291Ap present
Sum1p (S. cerevisiae) [4] = target: T1, Sum1p (S. cerevisiae); assay: co-IP; as a1, but HA-Sir2p (pRO298) in wild-type yeast (W3031-a) with endogenous Hst1p present

Substance: HA-Sir2_(1−255)-Hst1_(201−503)p (from UniProt P06700 1-255; P53685 201-503)
- binding (Sir4p (S. cerevisiae)): binds
- binding (Sum1p (S. cerevisiae) [1]): binds

Substance: HA-Sir2p (from UniProt P06700 1-562) (enzyme)
- binding (Sum1p (S. cerevisiae) [2]): no binding
- binding (Sir4p (S. cerevisiae)): binds
- binding (Sum1p (S. cerevisiae) [1]): binds

Substance: Hst1-N291Ap (from UniProt P53685 1-503) (enzyme)
- binding (Sum1p (S. cerevisiae) [3]): binds

Substance: Hst1p (from UniProt P53685 1-503) (enzyme)
- binding (Sum1p (S. cerevisiae) [4]): binds

Substance: Hst1p-HA (from UniProt P53685 1-503) (enzyme)
- binding (Sum1p (S. cerevisiae) [1]): binds
